Screen size: about 320,000 compounds; about 200 (0.062%) were called active. This list was built around the results that the source calls inconclusive (neither active nor inactive); the mix of calls is not that of the screen. The call rests on the fitted dose curve; in most records, active means well fitted activation curve with a large enough effect; inconclusive means small, poorly fitted or top-dose-only effect; inactive means no such curve, though single readings can be large or run the other way. No potency is given beside an inconclusive call; the fits are too rough.
test: qHTS assay for re-activators of p53 using a Luc reporter; details: H1299 p53-A138V BP100-luciferase reporter, luminescence, 24 h; series mostly up to 92.2 µM; activity change, positive = activation: at the top concentration; further: nearly all actives have a fitted effect of over 45% in size; on activity change, positive = activation: % of control where 0% means no effect
How it was run: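 p53-null H1299 cells stably carrying temperature-sensitive p53-A138V and a BP100-luciferase reporter were pinned with compounds (4-point, 1:5 series) and held 24 hrs at 37 deg C. Luminescence was read 10 min after detection reagent.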
Potency means the concentration at half of the fitted maximal effect; tags describe the fitted curve by direction and shape.

Row | SMILES | Potency | activity change, positive = activation
1 | CCC(=O)Nc1cc2nn(-c3ccc(OC)cc3)nc2cc1C | inconclusive [activator, partial curve, poor fit] | –
2 | COC(=O)c1c(NC(=O)c2ccco2)sc2c1C(C(=O)OC)CC2 (stereo not drawn) | inconclusive [activator, single point] | –
3 | CC(=O)c1c(C)oc2c1cc(NS(=O)(=O)c1ccc(C(=O)O)cc1)c1ccccc12 | inconclusive [activator, single point] | –
4 | O=C(/C=C/c1ccc(OC2CSC2)cc1)c1ccccc1 | – | inactive: 21%
5 | COc1ccc([C@H]2CC(=O)C=C(c3ccc(C)c(F)c3)C2)cc1 | inconclusive [activator, partial curve, poor fit] | –
6 | Cc1ccc(OCC(=O)NC2CCCC2)c(C)c1 | inconclusive [activator, partial curve, poor fit] | –
7 | CC(C)/C=N/Nc1nc(-c2ccc(Br)cc2)cs1 | inconclusive [activator, partial curve, poor fit] | –
8 | O=C(O)c1cc(N/N=C/C(Cl)=C/c2ccccc2)ccc1Cl | – | inactive: -9.28%
9 | CCN(CC)C(=O)CSc1nc2ccc(NC(=O)CSc3nccn3C)cc2s1 | – | inactive: 22.6%
10 | COc1ccc(CNc2ccc3c(c2)ncn3-c2ccccc2OC)cc1 | – | inactive: 0.293%
11 | C=C(C)CNC(=S)N/N=C/c1ccco1 | – | inactive: 9.44%
12 | COC(=O)Cc1csc(Nc2ccccc2Cl)n1 | inconclusive [activator, partial curve, poor fit] | –
13 | O=C(COc1ccccc1)N1CCCCCCC1 | inconclusive [activator, partial curve, poor fit] | –
14 | COc1ccc(C2=NN(C(=O)CSc3ncccn3)C(c3cccc(OC)c3OC)C2)cc1 (stereo not drawn) | – | inactive: -0.391%
15 | Cc1cccc(CSc2ncccc2C(=O)O)c1 | inconclusive [activator, partial curve, poor fit] | –
16 | COc1ccc(C(=O)/C=C/Nc2ccc([N+](=O)[O-])cc2)cc1 | inconclusive [activator, single point] | –
17 | CC1=NN(c2ccc(Cl)cc2)C(=O)C1 | – | inactive: 5.95%
18 | Cc1ccccc1CSCC(=O)Nc1ccccc1F | inconclusive [activator, partial curve, poor fit] | –
19 | COc1cccc(C(=O)Nc2ccc(N3CCN(S(C)(=O)=O)CC3)cc2)c1 | – | inactive: 5.58%
20 | Cc1ccccc1NC1=C(Cl)C(=O)OC1OC(=O)c1ccco1 (stereo not drawn) | inconclusive [activator, partial curve, poor fit] | –
21 | CC(=O)N(C)c1ccc(NC(=S)Nc2cccc3ccccc23)cc1 | inconclusive [activator, partial curve, poor fit] | –
22 | O=S(=O)(c1ccc(Cl)nc1)N1CCc2ccccc21 | – | inactive: -2.68%
23 | COc1ccc(N2C(=O)C3C(C2=O)C(C(=O)c2ccccc2)N2CCCC32)cc1 (stereo not drawn) | inconclusive [activator, single point] | –
24 | COc1ccc(C(=O)CSc2cc(C)[nH]c(=O)n2)cc1 | inconclusive [activator, full curve, poor fit] | –
25 | O=C(CNc1ccc(Br)cc1)c1ccccc1 | – | inactive: 10.7%

Row | SMILES | Potency | activity change, positive = activation
26 | CN(CC(=O)NC(=O)Nc1ccccc1F)Cc1ccccc1F | inconclusive [activator, partial curve, poor fit] | –
27 | COc1ccc(CCNC(=O)C(=O)NCC2OCCN2S(=O)(=O)c2ccc(C)cc2)cc1OC (stereo not drawn) | – | inactive: -6.77%
28 | COc1ccc(-c2noc(CCC(=O)N3CCN(c4ccccc4C)CC3)n2)cc1 | inconclusive [activator, single point] | –
29 | Cc1cc([N+](=O)[O-])ccc1NC(=O)/C=C/c1cccs1 | inconclusive [activator, full curve, poor fit] | –
30 | N#Cc1c(NC(=S)NC(=O)C2CCCC2)sc2c1CCCCC2 | inconclusive [activator, partial curve, poor fit] | –
31 | COc1ccccc1NC(=S)N/N=C/c1ccc(O)cc1 | inconclusive [activator, full curve, poor fit] | –
32 | N=c1c(C(=O)NC2CCCCC2)cc2c(=O)n3ccccc3nc2n1CC1CCCO1 (stereo not drawn) | – | inactive: 1.42%
33 | O=C(c1ccccc1[N+](=O)[O-])N1CCCC(C(=O)N2CCCCCC2)C1 (stereo not drawn) | inconclusive [activator, single point] | –
34 | CCCOCC(O)COc1ccccc1C(=O)N1CCOCC1 (stereo not drawn) | inconclusive [activator, single point] | –
35 | COc1ccc(CNC(=O)c2cc(-c3cccs3)on2)cc1 | – | inactive: 27.8%
36 | CC(C)(Oc1ccc(Cl)cc1)C(=O)NC1CC1 | – | inactive: -4.54%
37 | CCC(C)NC(=O)c1cnc2n(c1=O)CCS2 (stereo not drawn) | inconclusive [activator, single point] | –
38 | CC(C)CNC(=S)NC(=O)c1ccc(F)cc1 | inconclusive [activator, partial curve, poor fit] | –
39 | COc1cc(C(=O)Oc2c(OC)cc(C(=S)N3CCOCC3)cc2OC)cc(OC)c1OC | – | inactive: 3.69%
40 | CN(CC(=O)Nc1cccc(F)c1)C(=O)c1ccc2c(c1)CC(c1ccccc1)OC2=O (stereo not drawn) | – | inactive: -0.0587%
41 | OCCNc1c2ccccc2nc2c(F)c(F)c(F)c(F)c12 | inconclusive [activator, partial curve, poor fit] | –
42 | CC(=O)C1=C(C)NC(SCC(=O)c2ccc(F)cc2)=C(C#N)C1CC(C)C (stereo not drawn) | inconclusive [activator, partial curve, poor fit] | –
43 | O=C(CSc1nnc(NC(=O)c2ccc(F)cc2F)s1)NC1CC1 | inconclusive [activator, partial curve] | –
44 | Cc1nn(-c2ccccc2)c(C)c1/C=N/NC(=O)c1cccs1 | inconclusive [activator, full curve, poor fit] | –
45 | CCN(C(=O)C1CCCN(c2ncnc3c2nc2n3CCCCC2)C1)c1cccc(Cl)c1 (stereo not drawn) | – | inactive: -5.96%
46 | CCCN1CCN(CCCNC(=O)Cn2nc(-c3ccc(Cl)cc3)ccc2=O)CC1 | inconclusive [activator, single point] | –
47 | CCCCCCN1C2=NCCN2c2ccccc21 | – | inactive: -2.69%
48 | CN(Cc1ccccc1)c1ncnc2c1cnn2-c1ccccc1 | inconclusive [activator, full curve, poor fit] | –
49 | CC(=O)Nc1cccc(OCC(=O)Nc2ccccc2)c1 | inconclusive [activator, partial curve, poor fit] | –
50 | C/C=C/c1ccc(OCC(O)CN2CCCCCCC2)c(OC)c1 (stereo not drawn) | inconclusive [activator, full curve, poor fit] | –

Row | SMILES | Potency | activity change, positive = activation
51 | O=C(Nc1cccc(-c2cn3cccnc3n2)c1)c1cccs1 | – | inactive: 9.12%
52 | O=c1c2c(nc3cc(-c4cccc(Cl)c4)[nH]n13)CCC2 | inconclusive [activator, single point] | –
53 | O=C(Nc1ccccc1)c1ccccc1N=Cc1cccc(O)c1 | – | inactive: -5.26%
54 | S=C(c1ccc(-c2ccc(Br)cc2)o1)N1CCOCC1 | inconclusive [activator, full curve, poor fit] | –
55 | Cc1cc(C(=O)NC(C)C2CC2)c(Cl)cc1Cl (stereo not drawn) | – | inactive: 8.45%
56 | N#CCc1ccc(NS(=O)(=O)c2ccc(C3CCCCC3)cc2)cc1 | inconclusive [activator, full curve, poor fit] | –
57 | CCOc1ccc(NC(=O)NC23CC4CC(CC(C4)C2)C3)cc1 | inconclusive [activator, single point] | –
58 | O=C(NNC(=S)NCc1ccccc1)c1ccc2c(c1)OCO2 | – | inactive: 12.6%
59 | COc1ccc(NC(=O)CCc2c(C)nn(-c3ccc(N4CCOCC4)nn3)c2C)cc1 | inconclusive [activator, partial curve, poor fit] | –
60 | FC(F)(F)c1cnc(-c2cnc(-c3ccccn3)nc2)c(Cl)c1 | – | inactive: 17.1%
61 | O=C(CCC(=O)N1CCOCC1)NCCc1ccccc1 | inconclusive [activator, partial curve, poor fit] | –
62 | O=C(NN=C1CCCCC1)c1ccccc1-n1cccc1 | inconclusive [activator, single point] | –
63 | O=C(Nc1cccc(-c2ccc(N3CCCCC3)nn2)c1)c1ccco1 | – | inactive: 11.9%
64 | Cc1cccc2nc(COc3ccc(-c4ccccc4)cc3)cn12 | – | inactive: 1.62%
65 | COC(=O)c1ccc(-c2noc(CN3CCCCC3c3nccn3C)n2)cc1 (stereo not drawn) | – | inactive: -3.14%
66 | CCOC(=O)c1sc(NC(=O)CN2C(=O)c3cccc4cccc(c34)C2=O)nc1C | – | inactive: 6.95%
67 | Cc1cccc(C(=O)OCC(=O)c2ccc3c(c2)OCO3)c1O | inconclusive [activator, full curve, poor fit] | –
68 | COc1cccc(C(=O)Nc2ccccc2)c1 | inconclusive [activator, partial curve, poor fit] | –
69 | COc1ccccc1OCC(=O)NC1CCCCCC1 | inconclusive [activator, partial curve, poor fit] | –
70 | Cc1cc(C(=O)N/N=C/c2ccc[nH]2)n[nH]1 | inconclusive [activator, full curve] | –
71 | S=c1[nH]c(-c2ccccc2)cn1/N=C/c1ccccc1Br | – | inactive: 0.0137%
72 | CCOc1cc(C(=O)N2CCN(c3ccccc3)CC2)cc(OCC)c1OCC | inconclusive [activator, single point] | –
73 | CC1=Nc2cc([N+](=O)[O-])ccc2NC(C)(C)C1 | inconclusive [activator, single point] | –
